Experimental data from PubChem BioAssay AID2147 (National Center for Advancing Translational Sciences (NCATS), 2009).
About 3,600 (1.6%) of roughly 230,000 compounds were called active. The inconclusive results got no clear call from the source; some entries with a clear call stand among them for comparison. Calls come from the whole dose curve; as a rule, active = well fitted inhibition curve with a large enough effect (not every such curve was filed as active); inconclusive = small, poorly fitted or top-dose-only effect, or another doubt; inactive = no such curve, though single readings can be large or run the other way. Potencies beside an inconclusive call are fits to weak or partial responses and may not hold up.
Note: nearly all actives have a fitted effect of over 50% in size.
Potency is the fitted concentration of half-maximal effect; tags give direction and shape of the fitted curve.

These molecules were tested against Lysine-specific demethylase 4E (Homo sapiens) (UniProt B2RXH2) (assay: qHTS Assay for Inhibitors of Human Jumonji Domain Containing 2E (JMJD2E)). Conditions: JMJD2E catalytic domain, FDH-coupled NADH fluorescence (FDH is formaldehyde dehydrogenase); series mostly up to 57.1 µM.
Chain of UniProt B2RXH2 (B2RXH2 whole entry, looked up, the tested form may be a part): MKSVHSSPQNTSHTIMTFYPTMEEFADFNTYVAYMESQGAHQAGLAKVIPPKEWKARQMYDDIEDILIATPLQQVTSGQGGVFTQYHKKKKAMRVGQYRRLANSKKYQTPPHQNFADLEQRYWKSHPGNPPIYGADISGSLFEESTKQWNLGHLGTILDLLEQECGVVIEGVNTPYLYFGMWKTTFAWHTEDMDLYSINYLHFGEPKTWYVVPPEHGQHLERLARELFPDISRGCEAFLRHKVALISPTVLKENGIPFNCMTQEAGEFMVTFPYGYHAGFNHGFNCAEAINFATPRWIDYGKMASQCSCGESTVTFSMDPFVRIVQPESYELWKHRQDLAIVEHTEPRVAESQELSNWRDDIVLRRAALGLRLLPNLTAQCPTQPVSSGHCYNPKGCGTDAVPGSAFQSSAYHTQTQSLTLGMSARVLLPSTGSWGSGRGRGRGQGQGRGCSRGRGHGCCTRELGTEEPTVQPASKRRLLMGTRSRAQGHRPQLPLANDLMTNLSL
With CC(C)(C)OC(=O)[C@H](Cc1ccccc1)NC(=O)c1nc[nH]c1C(=O)NCc1ccccc1 the Potency was “inactive”.
With CCOC(=O)CSc1nc(-c2ccccc2)nc2ccc(F)cc12 the Potency was “inactive”.
For Cc1ccc(C)c2[nH]c(=O)c(CN(Cc3ccc4c(c3)OCO4)Cc3nnnn3Cc3ccco3)cc12, the Potency was inconclusive: 28.2 µM [inhibitor, single point].
COC(=O)c1sc2ccccc2c1NC(=O)c1ccc(S(=O)(=O)N2CCCCC2C)cc1 (configuration not stated) was tested, and the Potency was inconclusive: 35.5 µM [inhibitor, partial curve].
With COC(=O)c1cc(OC)c(OC)cc1NC(=O)c1ccc(C)o1 the Potency was inconclusive: 35.5 µM [inhibitor, single point].
CCCCNC(=O)C(c1ccc(OCC(=O)OC)c(C(=O)OC)c1)N(CCc1ccccc1)C(=O)CCCCCN1C(=O)NC(c2ccc(-c3ccccc3)cc2)C(C(=O)OCc2ccccc2)=C1C (configuration not stated) was tested, and the Potency was inconclusive: 39.8 µM [inhibitor, single point].
With COc1cc(OC)cc(C(=O)NCC(=O)OCc2cc(=O)oc3cc(OC)ccc23)c1 the Potency was inconclusive: 28.2 µM [inhibitor, partial curve].
In the case of COC(=O)c1ccccc1NC(=O)NC1CCC(C)CC1 (configuration not stated), the Potency is reported as inconclusive: 28.2 µM [inhibitor, partial curve].
In the case of Cc1cccn2c(=O)c3cc(C(=O)NCCCN4CCCC4=O)n(C)c3nc12, the Potency is reported as inconclusive: 28.2 µM [inhibitor, partial curve].
COc1cc(/C=N/OCC(=O)Nc2cc(C)cc(C)c2)ccc1OCc1ccc(Cl)cc1 was tested, and the Potency was inconclusive: 28.2 µM [inhibitor, single point].
With Cc1cccn2c(NCc3ccc4c(c3)OCO4)c(-c3ccc(O)cc3)nc12 the Potency was inconclusive: 28.2 µM [inhibitor, partial curve].
In the case of Cc1ccc2c(c1)c1ncnc(N3CCOCC3)c1n2C, the Potency is reported as inconclusive: 28.2 µM [inhibitor, partial curve].
In the case of COC(=O)c1ccccc1NC(=S)N1CCC(N2CCCCC2)CC1, the Potency is reported as inconclusive: 17.8 µM [inhibitor, partial curve, poor fit].
For Cn1c(=O)c2nc(-c3ccc(Cl)cc3Cl)oc2c2ccccc21, the Potency was inconclusive: 1.78 µM [inhibitor, partial curve].
For C=CCOn1c(=O)c(-c2ccccc2)[n+]([O-])c2ccccc21, the Potency was active: 20 µM.
With COc1ccc(-n2nnnc2SCC(=O)Nc2ccc3c(c2)OCCO3)c(OC)c1 the Potency was “inactive”.
For CCOC(=O)c1cn(CC)c2cc(N3CCSCC3)c(F)cc2c1=O, the Potency was inconclusive: 25.1 µM [inhibitor, partial curve].
For COC(=O)/C=C1\SC(=Nc2ccc(OC)cc2)NC1=O, the Potency was “inactive”.
With Cc1ccc(C(=O)/C=C/NCc2ccc(F)cc2)cc1 the Potency was “inactive”.
In the case of COc1nc(-c2ccc(Cl)cc2)ccc1-c1noc(-c2cccs2)n1, the Potency is reported as inconclusive: 3.16 µM [inhibitor, partial curve].
In the case of COC(=O)c1cc(NS(=O)(=O)c2ccc(NCc3cccnc3)c([N+](=O)[O-])c2)cc(C(=O)OC)c1, the Potency is reported as “inactive”.
With Cc1c(CC(=O)O)c(=O)oc2cc(OCc3nn[nH]n3)ccc12 the Potency was inconclusive: 28.2 µM [inhibitor, partial curve].
In the case of O=C(C1c2ccccc2C(=O)N2CCc3ccccc3C12)N1CCN(Cc2ccccc2)CC1 (configuration not stated), the Potency is reported as inconclusive: 8.91 µM [inhibitor, single point].
In the case of O=C(N/N=C/C=C/c1ccccc1)c1cc2c(ccc3ccccc32)o1, the Potency is reported as inconclusive: 25.1 µM [inhibitor, partial curve].
For CC1(C)Cc2c(c(N3CCCC3)[nH]c(=S)c2C#N)CO1, the Potency was “inactive”.
In the case of NC(=O)c1ccccc1O, the Potency is reported as inconclusive: 25.1 µM [inhibitor, partial curve].
In the case of CCN(CC)S(=O)(=O)c1ccc(/C=C/C(=O)Nc2cccc(F)c2)cc1, the Potency is reported as “inactive”.
In the case of Cc1nn(Cc2ccc(Cl)cc2Cl)c(C)c1NC(=O)c1sc2ccccc2c1Cl, the Potency is reported as “inactive”.
O=C(Nc1ccccc1)c1cccc(N2C(=O)CCC2=O)c1 was tested, and the Potency was “inactive”.
In the case of Cc1cc(-c2cc(-c3ccccc3)on2)nc(NCC2CC2)n1, the Potency is reported as inconclusive: 28.2 µM [inhibitor, single point].
In the case of O=[N+]([O-])c1cccc(N2Cc3ccccc3C2)c1, the Potency is reported as inconclusive: 20 µM [inhibitor, single point].
In the case of CCn1c(=O)c(=O)[nH]c2cc(C(=O)NC3CCCc4ccccc43)ccc21 (configuration not stated), the Potency is reported as inconclusive: 35.5 µM [inhibitor, single point].
Cc1cc(NCc2ccccn2)n2nc(C)c(-c3ccccc3)c2n1 was tested, and the Potency was inconclusive: 31.6 µM [inhibitor, single point].
In the case of COc1ccccc1-n1c(SCc2cc(=O)oc3cc(O)ccc23)nc2ccccc2c1=O, the Potency is reported as inconclusive: 22.4 µM [inhibitor, partial curve].
In the case of O=C(COC(=O)CCc1nc2ccccc2s1)Nc1ccc(Cl)cn1, the Potency is reported as inconclusive: 39.8 µM [inhibitor, single point].
With CC(C)Sc1nc(N)nc(-c2cccs2)c1C#N the Potency was inconclusive: 28.2 µM [inhibitor, single point].
N#Cc1c(N2CCOCC2)nc(N)c2c(N)nc3c(c12)CC(CCl)O3 (configuration not stated) was tested, and the Potency was inconclusive: 20 µM [inhibitor, partial curve].
O=c1c(-c2nnc(SCc3ccc(Cl)c(Cl)c3)o2)cccn1Cc1ccccc1 was tested, and the Potency was inconclusive: 25.1 µM [inhibitor, partial curve].
CCc1ccc(-c2cc(C(F)(F)F)n3nc(C(=O)Nc4c(C)nn(Cc5ccccc5Cl)c4C)cc3n2)s1 was tested, and the Potency was inconclusive: 2 µM [inhibitor, full curve].
In the case of Fc1ccc(-c2csc(-c3ccc(C4SCCS4)cc3)n2)cc1F, the Potency is reported as inconclusive: 39.8 µM [inhibitor, single point].
For Cc1ccc2cc3c(NC(=O)c4cccnc4)nn(C)c3nc2c1, the Potency was inconclusive: 22.4 µM [inhibitor, partial curve].
For CCCN(CCC)CCNC(=O)c1cc2c(=O)n(C)c3ccccc3c2n1C, the Potency was inconclusive: 35.5 µM [inhibitor, partial curve].
